Some of the results follow. These are enrichments in a pooled selection; single values are uncertain. Scores sum up all selected molecules that hold the word; the word was not tested alone.

Common to all, as to test: 6-mer SELEX enrichment z-score vs GST control; IMP3 is the RNA-binding protein IGF2BP3; higher = more enriched by binding
The subject of one experiment is IMP3 KH1-4. The following applies: construct: KH1-4 (164-579); SELEX round: R4. As for the experimental part:
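SELEX-seq with GST-tagged IMP3 KH1-4 (Pro164-Lys579) and an N40 RNA pool, round 4. 6-mer z-score of sequence-tag enrichment normalised to the corresponding GST SELEX round; RNA k-mers written as DNA (T for U).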

Another experiment has as its system IMP3 RRM1-2. The following applies: construct: RRM1-2 (1-163); SELEX round: R2. As for the experimental part: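 SELEX-seq with GST-tagged IMP3 RRM1-2 (Met1-Asn163) and an N40 RNA pool, round 2. 6-mer enrichment z-score normalised to GST SELEX. RNA written as DNA (T = U).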
Another experiment deals with IMP3 full-length (UniProt O00425). The following applies: construct: FL IMP3 (1-579); SELEX round: R4. Here is the method: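 SELEX-seq with GST-tagged full-length IMP3 and an N40 RNA pool, round 4. Each 6-mer is scored as an enrichment z-score of sequence tags containing it, normalised to the matching GST SELEX round. RNA written as DNA (T = U).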
Another experiment concerns IMP3 KH1-2. The following applies: construct: KH1-2 (164-376); SELEX round: R4. As for the experimental part:
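SELEX-seq with GST-tagged IMP3 KH1-2 (Pro164-Phe376) and an N40 RNA pool, round 4 (stringent 300/600 mM KCl washes). 6-mer z-score of sequence-tag enrichment normalised to the corresponding GST SELEX round; RNA k-mers written as DNA (T for U).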

For another experiment, the system named is IMP3 KH3-4. The following applies: construct: KH3-4 (377-579); SELEX round: R4. As for the experimental part:
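SELEX-seq with GST-tagged IMP3 KH3-4 (Pro377-Lys579) and an N40 RNA pool, round 4. 6-mer z-score of sequence-tag enrichment normalised to the corresponding GST SELEX round; RNA k-mers written as DNA (T for U).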

Chain of IMP3 RRM1-2 (chain, as listed by the source): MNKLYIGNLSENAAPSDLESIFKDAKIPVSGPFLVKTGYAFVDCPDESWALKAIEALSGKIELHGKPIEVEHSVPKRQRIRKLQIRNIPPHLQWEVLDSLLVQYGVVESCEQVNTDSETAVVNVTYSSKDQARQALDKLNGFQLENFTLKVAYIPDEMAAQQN
Chain of IMP3 KH3-4 (chain, as listed by the source): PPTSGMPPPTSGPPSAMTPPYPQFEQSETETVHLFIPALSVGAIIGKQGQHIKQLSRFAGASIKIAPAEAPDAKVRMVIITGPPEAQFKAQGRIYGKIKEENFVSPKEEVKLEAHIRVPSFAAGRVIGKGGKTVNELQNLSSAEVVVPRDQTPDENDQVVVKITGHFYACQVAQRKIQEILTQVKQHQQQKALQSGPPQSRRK
Chain of IMP3 KH1-4 (chain, as listed by the source): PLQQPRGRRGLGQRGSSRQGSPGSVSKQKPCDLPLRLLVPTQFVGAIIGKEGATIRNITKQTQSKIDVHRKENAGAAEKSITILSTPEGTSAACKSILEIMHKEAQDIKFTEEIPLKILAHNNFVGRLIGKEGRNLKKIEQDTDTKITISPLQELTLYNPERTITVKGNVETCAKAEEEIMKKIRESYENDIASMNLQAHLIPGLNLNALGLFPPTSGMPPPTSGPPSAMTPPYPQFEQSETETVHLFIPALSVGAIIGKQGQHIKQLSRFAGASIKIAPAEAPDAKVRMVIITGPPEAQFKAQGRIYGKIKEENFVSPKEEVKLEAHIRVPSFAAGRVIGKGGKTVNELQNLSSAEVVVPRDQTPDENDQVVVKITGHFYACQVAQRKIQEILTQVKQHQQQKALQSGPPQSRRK
Chain of IMP3 KH1-2 (chain, as listed by the source): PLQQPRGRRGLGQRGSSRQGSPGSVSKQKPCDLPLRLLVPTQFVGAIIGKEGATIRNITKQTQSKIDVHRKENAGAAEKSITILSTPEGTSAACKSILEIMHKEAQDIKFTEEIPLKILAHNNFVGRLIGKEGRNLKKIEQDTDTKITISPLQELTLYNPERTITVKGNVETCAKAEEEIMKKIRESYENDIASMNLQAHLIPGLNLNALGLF
Chain of UniProt O00425 (O00425 whole entry): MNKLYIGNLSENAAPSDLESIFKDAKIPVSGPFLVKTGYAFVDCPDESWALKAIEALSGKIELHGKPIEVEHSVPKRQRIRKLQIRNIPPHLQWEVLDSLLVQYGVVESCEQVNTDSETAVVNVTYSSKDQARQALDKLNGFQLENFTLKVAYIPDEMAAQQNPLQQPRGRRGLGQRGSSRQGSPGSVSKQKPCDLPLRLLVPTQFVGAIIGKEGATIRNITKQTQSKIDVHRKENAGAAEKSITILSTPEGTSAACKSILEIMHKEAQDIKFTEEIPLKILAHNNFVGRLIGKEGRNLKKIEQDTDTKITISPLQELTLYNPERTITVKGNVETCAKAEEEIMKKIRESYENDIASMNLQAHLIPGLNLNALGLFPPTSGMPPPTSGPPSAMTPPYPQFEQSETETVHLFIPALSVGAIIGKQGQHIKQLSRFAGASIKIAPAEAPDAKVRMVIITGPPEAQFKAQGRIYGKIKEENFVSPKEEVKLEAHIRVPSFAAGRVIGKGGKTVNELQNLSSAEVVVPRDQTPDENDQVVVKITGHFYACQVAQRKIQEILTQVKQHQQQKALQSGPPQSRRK

As for CTGCGT, the “6-mer SELEX enrichment z-score” value in the experiment on IMP3 KH1-4 was -1.57; in the experiment on IMP3 RRM1-2, 0.194; with IMP3 full-length it was -0.859; in the experiment on IMP3 KH1-2, -1.4; with IMP3 KH3-4, -1.24.

In the case of CGCGGA, the “6-mer SELEX enrichment z-score” value with IMP3 KH1-4 is -0.534; in the experiment with IMP3 RRM1-2 it was -0.447; with IMP3 full-length, -0.002; in the experiment on IMP3 KH1-2, -0.414; in the experiment on IMP3 KH3-4, -0.454.

Regarding AATTTC, the “6-mer SELEX enrichment z-score” value amounted to 1 in the experiment with IMP3 KH1-4; 0.047 in the experiment with IMP3 RRM1-2; 0.174 with IMP3 full-length; 1.16 in the experiment with IMP3 KH1-2; 1.07 in the experiment on IMP3 KH3-4.

AGGTCC: the “6-mer SELEX enrichment z-score” value is -0.043 with IMP3 KH1-4; -0.032 in the experiment with IMP3 RRM1-2; 0.286 with IMP3 full-length; -0.125 with IMP3 KH1-2; -0.255 in the experiment on IMP3 KH3-4.

As to TAGATG, the “6-mer SELEX enrichment z-score” value is 0.58 with IMP3 KH1-4; -0.306 with IMP3 RRM1-2; -0.22 with IMP3 full-length; 0.285 in the experiment with IMP3 KH1-2; 0.859 in the experiment with IMP3 KH3-4.

As for AAACGC, the “6-mer SELEX enrichment z-score” value in the experiment on IMP3 KH1-4 is -1.27; in the experiment on IMP3 RRM1-2, -1.36; in the experiment with IMP3 full-length, -1.61; in the experiment with IMP3 KH1-2, -1.17; in the experiment on IMP3 KH3-4 it was -1.27.

Consider CAAAGT, for which the “6-mer SELEX enrichment z-score” value with IMP3 KH1-4 is -0.51; with IMP3 RRM1-2, -0.459; with IMP3 full-length, -0.395; with IMP3 KH1-2, -0.759; with IMP3 KH3-4 it was -0.576.

Take TTCTCA: the “6-mer SELEX enrichment z-score” value in the experiment on IMP3 KH1-4 was found to be 0.367; in the experiment with IMP3 RRM1-2, 0.632; in the experiment with IMP3 full-length it was 0.469; in the experiment on IMP3 KH1-2, 0.459; in the experiment on IMP3 KH3-4 it was 0.196.

In the case of CCTCTC, the “6-mer SELEX enrichment z-score” value in the experiment on IMP3 KH1-4 is -0.32; with IMP3 RRM1-2, 0.167; in the experiment with IMP3 full-length, -0.304; in the experiment on IMP3 KH1-2, -0.205; in the experiment on IMP3 KH3-4, -0.62.

With TAAGTT, the “6-mer SELEX enrichment z-score” value in the experiment with IMP3 KH1-4 was 0.235; in the experiment on IMP3 RRM1-2 it was 0.102; with IMP3 full-length, -0.149; in the experiment with IMP3 KH1-2, 0.131; with IMP3 KH3-4, 0.399.

As to TAGCCT, the “6-mer SELEX enrichment z-score” value in the experiment on IMP3 KH1-4 is -0.488; with IMP3 RRM1-2, -0.09; with IMP3 full-length, -0.451; in the experiment with IMP3 KH1-2, -0.465; with IMP3 KH3-4 it was -0.419.

For GGTAAC, the “6-mer SELEX enrichment z-score” value was -0.609 in the experiment on IMP3 KH1-4; -0.063 with IMP3 RRM1-2; -0.218 with IMP3 full-length; -0.556 in the experiment on IMP3 KH1-2; -0.515 in the experiment on IMP3 KH3-4.

Take CCATCC: the “6-mer SELEX enrichment z-score” value with IMP3 KH1-4 was -0.017; in the experiment on IMP3 RRM1-2, 0.042; in the experiment with IMP3 full-length, -0.048; with IMP3 KH1-2, 0.011; in the experiment with IMP3 KH3-4, -0.956.

In the case of AATTAC, the “6-mer SELEX enrichment z-score” value was 0.923 in the experiment with IMP3 KH1-4; -0.335 with IMP3 RRM1-2; -0.293 with IMP3 full-length; 1.02 in the experiment with IMP3 KH1-2; 1.45 in the experiment with IMP3 KH3-4.

As to TGGATG, the “6-mer SELEX enrichment z-score” value with IMP3 KH1-4 is 0.785; in the experiment on IMP3 RRM1-2, -0.115; with IMP3 full-length, 0.069; with IMP3 KH1-2, 0.509; in the experiment on IMP3 KH3-4, 0.72.

For the sequence TCAGCA, the “6-mer SELEX enrichment z-score” value in the experiment with IMP3 KH1-4 was 0.23; in the experiment on IMP3 RRM1-2 it was 1.21; in the experiment with IMP3 full-length it was 1.42; with IMP3 KH1-2, 0.167; in the experiment with IMP3 KH3-4, -0.006.

CTAATA: the “6-mer SELEX enrichment z-score” value in the experiment with IMP3 KH1-4 was 0.958; in the experiment with IMP3 RRM1-2 it was -0.447; with IMP3 full-length, -0.278; with IMP3 KH1-2, 0.894; in the experiment with IMP3 KH3-4, 1.31.

On to CGCTCC, for which the “6-mer SELEX enrichment z-score” value was 0.064 with IMP3 KH1-4; -0.111 with IMP3 RRM1-2; 0.14 with IMP3 full-length; 0.232 in the experiment with IMP3 KH1-2; -0.488 with IMP3 KH3-4.

Turning to AGTAGT, the “6-mer SELEX enrichment z-score” value with IMP3 KH1-4 was -0.194; with IMP3 RRM1-2 it was 0.251; with IMP3 full-length it was -0.089; with IMP3 KH1-2 it was -0.183; with IMP3 KH3-4, -0.043.

Consider CCGACC, for which the “6-mer SELEX enrichment z-score” value in the experiment on IMP3 KH1-4 is -2.17; with IMP3 RRM1-2, -1.15; with IMP3 full-length it was -1.82; in the experiment with IMP3 KH1-2, -1.82; in the experiment on IMP3 KH3-4 it was -2.56.
